In patent publication EP4702992A1, “ANTIBODY-DRUG CONJUGATE” (priority 2023, dated 2024):

T1: B7H3 antigen on A375 surface (Homo sapiens, UniProt Q5ZPR3)
T1 construct: endogenous in cells; host or cells: A375
T1 sequence (Q5ZPR3 29-534): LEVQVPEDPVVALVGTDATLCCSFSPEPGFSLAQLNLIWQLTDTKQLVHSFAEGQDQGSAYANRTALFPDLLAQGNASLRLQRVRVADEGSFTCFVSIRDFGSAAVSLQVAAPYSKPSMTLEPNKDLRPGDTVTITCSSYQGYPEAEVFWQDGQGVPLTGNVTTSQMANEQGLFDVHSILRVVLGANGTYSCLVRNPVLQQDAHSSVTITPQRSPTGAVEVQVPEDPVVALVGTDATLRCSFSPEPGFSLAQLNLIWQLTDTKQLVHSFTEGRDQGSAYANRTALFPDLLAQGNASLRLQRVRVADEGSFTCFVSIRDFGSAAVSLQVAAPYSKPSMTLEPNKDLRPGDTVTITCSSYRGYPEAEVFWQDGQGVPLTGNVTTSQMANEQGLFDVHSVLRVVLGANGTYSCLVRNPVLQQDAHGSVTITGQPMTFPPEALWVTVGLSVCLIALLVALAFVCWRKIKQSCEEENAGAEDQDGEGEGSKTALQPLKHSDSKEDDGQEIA


Experiments:
Hep3B xenograft tumor = experiment: Pharmacodynamic evaluation in Hep3B xenograft tumor mouse model; type: in vivo, nu/nu nude mice; conditions: 2 mg/kg, single injection; for Mean tumor volume (Day 0): Day 0 (day of grouping), mean ± standard error; for TGI(%): Day 22; for Mean tumor volume (Day 22): Day 22, mean ± standard error
Source text: (§1) Cells were taken from the B7H3-positive cell strain Hep3B and inoculated into the right forelimb axilla of nu/nu nude mice aged 4-6 weeks at 10^7 cells/mouse (6 mice per group). When the mean tumor volumes of the mice reached about 150 mm^3, the mice were randomly grouped and subjected to administration by a single injection. The day of grouping was defined as Day 0, and the administration was started on Day 0. After tumor grafting, the experimental animals were routinely monitored for tumor growth and the effect of treatment on the normal behavior, specifically the activity, food and water intake, body weight gain or loss (the body weight was measured twice a week), and abnormalities in eyes, fur, and other aspects. Calculation formula for tumor volume: Tumor volume (mm^3) = 1/2 × (a × b^2) (where a represents the long diameter, and b represents the short diameter). Table 27: Pharmacodynamic evaluation of test drugs in liver cancer xenograft Hep3B mouse model

[1] = DAR determination by reversed-phase chromatography; conditions: average drug loading per antibody
Experimental: The antibody sample was diluted to about 10 mg/mL with a suitable buffer (consistent with the sample buffer), and an appropriate amount of a reducing agent TCEP was added, with the number of equivalents adjusted according to a target DAR (8-10 equivalents for a target DAR of 8). The pH was then adjusted to 7-7.4 with a Tris buffer, and the antibody was reduced at room temperature for 1-1.5 h. The reduced intermediate state of the antibody could be monitored by CE-SDS. […] The conjugation reaction was performed at room temperature for about 30 min. After the conjugation was completed, the reaction liquid was first filtered, and then subjected to buffer exchange by ultrafiltration using a centrifugal concentration tube to remove excess linker-drug and other small-molecule impurities. After the purification was completed, the resulting sample was subjected to DAR determination by reversed-phase chromatography.
(§2) The concentration of the antibody trastuzumab was adjusted to 10 g/L using a phosphate buffer solution (pH 7.0), and the antibody solution after buffer exchange was placed into a centrifuge tube, followed by the addition of 8.0 equivalents of 5 mM TCEP (Adamas-beta, Ltd.). […] The average drug loading per antibody was determined by reversed-phase chromatography.
as §2, with “farletuzumab or farletuzumab FcS” for “trastuzumab”, “7.0” for “8.0”
as §2, with “33B” for “trastuzumab”, “10.0” for “8.0”, “chromatography. […]” for “chromatography.”

[2] = target: T1, B7H3 antigen on A375 surface; experiment: Determination of ADC affinities by FACS; type: binding; conditions: A375 cells, flow cytometry (MFI)
Experimental: The affinities of B-ADC55-1-6, B-ADC2-1-6, B-ADC12-1-6, and DSADC were determined using the B7H3-positive human melanoma cell strain A375. Each sample was diluted to 15000 ng/mL with a PBS solution containing 2% BSA and then serially diluted across 11 gradients to achieve sample concentrations ranging from 0.014 ng/mL to 15000 ng/mL. A375 cells were taken, centrifuged at 500× g for 5 min, washed 3 times with a PBS solution containing 2% BSA, incubated with samples at different dilution concentrations at 4 °C for 2 h, further washed, and then incubated with the goat anti-human Alexa Fluor 488 fluorescent dye at 4 °C for 1 h in the dark. After washing, the cells were resuspended, and the mean fluorescence intensity (MFI) of the cells was measured using an Attune NxT flow cytometer (Thermo Fisher Scientific, Inc.). Table 26: Determination of affinities of ADCs for B7H3 antigen on A375 surface by flow cytometry

A375 xenograft tumor = experiment: Pharmacodynamic evaluation in A375 xenograft tumor mouse model; type: in vivo, nu/nu nude mice; conditions: A375, 2 mg/kg, i.v., single administration, mean ± standard error; for Mean tumor volume (Day 0): Day 0 (day of grouping)
Source text: as §1, with “A375” for “Hep3B”, “(7” for “(6”, “130” for “150”, “administration.” for “administration by a single injection.”, “28: Grouping and administration regimen” for “27: Pharmacodynamic evaluation of test drugs in liver cancer xenograft Hep3B mouse model”

Molecule	Mean tumor volume (Day 0) (Hep3B xenograft tumor)	TGI(%) (Hep3B xenograft tumor)	Mean tumor volume (Day 22) (Hep3B xenograft tumor)	DAR [1]	EC50 [2]	Mean tumor volume (Day 0) (A375 xenograft tumor)	Mean tumor volume (Day 26) (A375 xenograft tumor)
B-ADC55-1-6 (conjugate) heavy: QVQLVQSGAEVKKPGASVKVSCKASGYTFTDYFMNWVRQAPGQGLEWMGDVNPKTGSPSYNQKFKGRVTMTRDTSTSTVYMELSSLRSEDTAVYYCARRYGFLYSMDYWGQGTSVTVSSASTKGPSVFPLAPSSKSTSGGTAALGCLVKDYFPEPVTVSWNSGALTSGVHTFPAVLQSSGLYSLSSVVTVPSSSLGTQTYICNVNHKPSNTKVDKRVEPKSCDKTHTSPPCPAPEAAGGPSVFLFPPKPKDTLMISRTPEVTCVVVDVSHEDPEVKFNWYVDGVEVHNAKTKPREEQYNSTYRVVSVLTVLHQDWLNGKEYKCKVSNKALAASIEKTISKAKGQPREPQVYTLPPSREEMTKNQVSLTCLVKGFYPSDIAVEWESNGQPENNYKTTPPVLDSDGSFFLYSKLTVDKSRWQQGNVFSCSVMHEALHNHYTQKSLSLSPGK light: DIQMTQSPSSLSASVGDRVTITCRASQDISNYLNWYQQKPGKAVKVLIYYTSRLHSGVPSRFSGSGSGTDFTFTISSLQPEDIATYYCQQGNTHPFTFGGGTKVEIKRTVAAPSVFIFPPSDEQLKSGTASVVCLLNNFYPREAKVQWKVDNALQSGNSQESVTEQDSKDSTYSLSSTLTLSKADYEKHKVYACEVTHQGLSSPVTKSFNRGEC	153.0±57.1 mm^3	66.5%	917.5±405.8 mm^3	5.7	0.03778 µg/mL	128.9±39.0 mm^3	144.6±90.1 mm^3
B-ADC12-1-6 (conjugate) heavy: QVQLVQSGAEVKKPGASVKVSCKASGYTFTDYFMNWVRQAPGQGLEWMGDVNPKTGSPSYNQKFKGRVTMTRDTSTSTVYMELSSLRSEDTAVYYCARRYGFLYSMDYWGQGTSVTVSSASTKGPSVFPLAPSSKSTSGGTAALGCLVKDYFPEPVTVSWNSGALTSGVHTFPAVLQSSGLYSLSSVVTVPSSSLGTQTYICNVNHKPSNTKVDKRVEPKSCDKTHTSPPCPAPEAAGGPSVFLFPPKPKDTLMISRTPEVTCVVVDVSHEDPEVKFNWYVDGVEVHNAKTKPREEQYNSTYRVVSVLTVLHQDWLNGKEYKCKVSNKALAASIEKTISKAKGQPREPQVYTLPPSREEMTKNQVSLTCLVKGFYPSDIAVEWESNGQPENNYKTTPPVLDSDGSFFLYSKLTVDKSRWQQGNVFSCSVMHEALHNHYTQKSLSLSPGK light: DIQMTQSPSSLSASVGDRVTITCRASQDISNYLNWYQQKPGKAVKVLIYYTSRLHSGVPSRFSGSGSGTDFTFTISSLQPEDIATYYCQQGNTHPFTFGGGTKVEIKRTVAAPSVFIFPPSDEQLKSGTASVVCLLNNFYPREAKVQWKVDNALQSGNSQESVTEQDSKDSTYSLSSTLTLSKADYEKHKVYACEVTHQGLSSPVTKSFNRGEC	153.0±58.6 mm^3	69.6%	847.7±384.0 mm^3	6.0	0.04001 µg/mL	128.3±29.1 mm^3	177.1±132.2 mm^3
B-ADC2-1-6 (conjugate) heavy: QVQLVQSGAEVKKPGASVKVSCKASGYTFTDYFMNWVRQAPGQGLEWMGDVNPKTGSPSYNQKFKGRVTMTRDTSTSTVYMELSSLRSEDTAVYYCARRYGFLYSMDYWGQGTSVTVSSASTKGPSVFPLAPSSKSTSGGTAALGCLVKDYFPEPVTVSWNSGALTSGVHTFPAVLQSSGLYSLSSVVTVPSSSLGTQTYICNVNHKPSNTKVDKRVEPKSCDKTHTSPPCPAPEAAGGPSVFLFPPKPKDTLMISRTPEVTCVVVDVSHEDPEVKFNWYVDGVEVHNAKTKPREEQYNSTYRVVSVLTVLHQDWLNGKEYKCKVSNKALAASIEKTISKAKGQPREPQVYTLPPSREEMTKNQVSLTCLVKGFYPSDIAVEWESNGQPENNYKTTPPVLDSDGSFFLYSKLTVDKSRWQQGNVFSCSVMHEALHNHYTQKSLSLSPGK light: DIQMTQSPSSLSASVGDRVTITCRASQDISNYLNWYQQKPGKAVKVLIYYTSRLHSGVPSRFSGSGSGTDFTFTISSLQPEDIATYYCQQGNTHPFTFGGGTKVEIKRTVAAPSVFIFPPSDEQLKSGTASVVCLLNNFYPREAKVQWKVDNALQSGNSQESVTEQDSKDSTYSLSSTLTLSKADYEKHKVYACEVTHQGLSSPVTKSFNRGEC	152.5±52.7 mm^3	56.8%	1138.2±856.6 mm^3	5.6	0.04161 µg/mL	129.8±38.3 mm^3	346.4±144.3 mm^3
